Test results taken from patent US20260209325A1, “SELECTIVE AND POTENT INHIBITORY ANTIBODIES OF MYOSTATIN ACTIVATION” (SCHOLAR ROCK, INC., priority 2022, published 2026).
Substitutions are numbered along the chain they refer to. Entries after “also recorded” stand apart in the source; their conditions may differ.

B1: Ab109: anti-pro/latent myostatin antibody; CDR sequences in Table 2d (antibody)
heavy: EVQLVESGGGLVQPGGSLRLSCAASGFTFSSYGMSWVRQAPGKGLELVASFTGSGGTYYPDSVKGRFTISRDNAKNSLYLQMNSLRAEDTAVYYCARDLLIRFLEWSHYYGMDVWGQGTTVTVSSASTKGPSVFPLAPCSRSTSESTAALGCLVKDYFPEPVTVSWNSGALTSGVHTFPAVLQSSGLYSLSSVVTVPSSSLGTKTYTCNVDHKPSNTKVDKRV[human IgG4 Fc with S228P (EU numbers) left out]
light: DIVMTQSPLSLPVTPGEPASISCRSSQSLLHSSGHNFLHWYLQKPGQSPQLLIYEVSNRVSGVPDRFSGSGSGTDFTLKISRVEAEDVGVYYCMQQTQYPPTFGGGTKVEIKRTVAAPSVFIFPPSDEQLKSGTASVVCLLNNFYPREAKVQWKVDNALQSGNSQESVTEQDSKDSTYSLSSTLTLSKADYEKHKVYACEVTHQGLSSPVTKSFNRGEC
B2: Ab130: anti-pro/latent myostatin antibody; CDR sequences in Table 2d (antibody)
heavy: EVQLVESGGGLVQPGGSLRLSCAASGFTFTSYGMSWVRQAPGKGLELVASITGSGGETYYPDSVKGRFTISRDNAKNSLYLQMNSLRAEDTAVYYCARDLLVRFLEWSHYYGMDVWGQGTTVTVSSASTKGPSVFPLAPCSRSTSESTAALGCLVKDYFPEPVTVSWNSGALTSGVHTFPAVLQSSGLYSLSSVVTVPSSSLGTKTYTCNVDHKPSNTKVDKRV[human IgG4 Fc with S228P (EU numbers) left out]
light: B1 light with V56T, V60A, S61P, V63I, M94Q, Q96A, Y99F, P101R, T102P

Columns and labels:
free latent myostatin = target: T1, free latent myostatin (Mus musculus, UniProt O08689); assay: serum free latent myostatin in obese mice with or without semaglutide (Example 8); format: in vivo; conditions: in presence or absence of semaglutide, day 22; FIG. 16C
T1 construct: from tissue; host or cells: mouse serum
From the text: In another embodiment, a pharmacodynamic assay, can be performed by measuring the binding of the antibodies to serum free latent myostatin (i.e., circulating latent myostatin that is not bound by the antibody). Such an assay may immobilize streptavidin, bind a biotinylated antibody known to bind latent myostatin, add latent myostatin, and test the ability of an antibody to bind to the free latent myostatin by labeling the test antibody with a detectable marker. […] In such an embodiment, the detection range of the assay may be in the nanogram range, e.g., 0.1 ng/ml-750 ng/ml, 1.0 ng/ml-500 ng/ml, or 3.0 ng/ml-500 ng/ml, e.g., 3.9-500 ng/mL. […]
(§1) Male 19 week old C7/BL6 mice fed a high fat diet to induce obesity (DIO-B6-M mice, were evaluated for the effect of the combination of antibody and semaglutide on the exposure of the antibody to the target antigen (PK) and the total myostatin serum level (PD), as shown in Table 25. Animals were dosed with antibody intraperitoneally on days 0, 7, and 14 and were dosed with semaglutide subcutaneously daily throughout the study. Exposure of the antibody to immobilized promyostatin was determined by ELISA. Total serum myostatin was also measured by ELISA. The study concluded on day 22, when terminal bleeds were obtained.

[1] = dexamethasone-induced muscle atrophy mouse model; format: in vivo; conditions: for gastrocnemius muscle weight / quadriceps muscle weight: dexamethasone treated mice, 0.3, 1, 3 or 10 mg/kg; for gastrocnemius muscle weight: FIG. 7C; for quadriceps muscle weight: FIG. 7D; for preservation of body weight: antibody 0.3-10 mg/kg, FIG. 7A; for preservation of lean mass: FIG. 7B, compared with Ab2 at 10 mg/kg
How it was run: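 Male C57BL6 mice (n=8, 13-14 weeks) received dexamethasone in drinking water (2.5 mg/kg) for 14 days, with vehicle (PBS), human IgG or antibody (0.3 to 10 mg/kg) dosed on days 1 and 7. Lean mass was measured by qNMR; at day 14, gastrocnemius and quadriceps weights and serum myostatin were recorded. ANOVA with Dunnett's test.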

[2] = semaglutide plus Ab109 in DIO mice incl. semaglutide withdrawal (Example 6); format: in vivo, mouse
Method: Male C57/BL6 male mice (n=8/group) were either fed regular mouse chow (Group 1) or placed on a 60% high fat diet at six weeks of age and maintained on the 60% high fat diet until 21 weeks of age (Groups 2-8), at which time the study began (day 0). On day 0, animals in groups 2-8 were switched to a 45% high fat diet and maintained on the 45% high fat diet until the animals were terminated. […] Body weight was measured three times per week and qNMR measurements of lean mass and fat mass were obtained on the days set forth.
Animals in groups 3 and 4 were dosed with semaglutide weekly for 14 days, then terminated. Animals in groups 5 and 6 (weight regain groups), were treated with semaglutide for 35 days, then the semaglutide treatment was ended while the myostatin activation inhibiting antibody treatment continued until the animals were terminated on day 63. The animals in Groups 7 and 8 were treated with semaglutide for 63 days, i.e., they remained on semaglutide until the study terminated on day 63.
At termination, left and right gastrocnemius muscles were removed and frozen; the liver was weighed, one lobe was fixed, and the remainder was frozen; epididymal adipose tissue was removed and weighed; subcutaneous adipose tissue was removed and weighed; and a terminal serum bleed was obtained.

[3] = terminal antibody exposure in serum, dexamethasone study; format: in vivo, mouse; conditions: serum of terminal bleed, dexamethasone-treated mice
Method: In a third experiment, antibody doses ranging from 0.3 mg/kg to 10 mg/kg were compared for their effectiveness in attenuating dexamethasone-induced atrophy. C57BL6 male mice (n=8) at 13-14 weeks of age were given normal drinking water or water containing dexamethasone at a concentration of 2.5 mg/kg to induce atrophy. Mice were dosed at day 1 and day 7 with vehicle (PBS), human IgG control (“hIgG”) or different doses of the test antibodies, as shown in Table 14 below. qNMR was used to measure muscle mass at days −1, 6 and 13. At day 14 the study ended, serum was collected and changes in body composition (qNMR), left and right gastrocnemius weight, and left and right quadriceps weight were determined. Circulating myostatin was measured in the serum of a terminal bleed taken at day 14. Statistical analysis was performed by ANOVA (Dunnett's multiple comparison test).
Antibody exposure and circulating total myostatin levels were measured in the serum collected from the terminal bleeds after treatment with Ab2, Ab130 and Ab109. The results are shown in Table 15 and Table 16 respectively.

[4] = serum antibody exposure (PK) in obese mice with or without semaglutide (Example 8); format: in vivo, mouse; conditions: 0.1 to 3 mg/kg i.p. days 0, 7, 14, alone or with semaglutide; FIG. 16A
Method: as §1

[5] = dose 0.3 mg/kg at day 1 and day 7
[6] = dose 1 mg/kg at day 1 and day 7
[7] = dose 3 mg/kg at day 1 and day 7
[8] = dose 10 mg/kg at day 1 and day 7

| Molecule | gastrocnemius muscle weight [1] | quadriceps muscle weight [1] | preservation of body weight ([1]; dexamethasone treated mice) | preservation of lean mass ([1]; dexamethasone treated mice) | Exposure (terminal antibody exposure) [3, 5] [µg/mL] | Exposure (terminal antibody exposure) [3, 6] [µg/mL] | Exposure (terminal antibody exposure) [3, 7] [µg/mL] | Exposure (terminal antibody exposure) [3, 8] [µg/mL] | other results |
| --- | --- | --- | --- | --- | --- | --- | --- | --- | --- |
| B1 | more efficacy at all four doses as compared to Ab2 at 3 mg/kg | more efficacy at all four doses as compared to Ab2 at 3 mg/kg | efficacious in preserving body weight; also recorded: improved efficacy compared to Ab2 at 10, 3, and 1 mg/kg | greater efficacy in preserving lean mass than Ab2 | 2.8 | 104.9 | 67.3 | 470.2 | serum free latent myostatin (not bound by antibody) (free latent myostatin): reduced below the level of quantitation; prevention of weight loss ([1]; dexamethasone treated mice, 1 mg/kg dose, FIG. 10A): equally as effective as the 10 mg/kg dose of Ab 2; maintenance of body weight (percent change from baseline) ([1]; dexamethasone treated mice, antibody 3 mg/kg/day, FIG. 6A, 9A): to a greater extent than Ab2; preservation of lean mass by qNMR ([1]; dexamethasone treated mice, antibody 3 mg/kg/day, FIG. 6B, 9B): to a greater degree than the 10 mg/kg/day Ab2 treatment; preservation of gastrocnemius weight ([1]; dexamethasone treated mice, antibody 3 mg/kg/day, FIG. 6C, 9C): highly effective in preserving gastrocnemius weight; body weight ([1]; dexamethasone treated mice, fourth experiment, FIG. 10A): prevented dexamethasone-induced weight loss; lean mass by qNMR ([1]; dexamethasone treated mice, fourth experiment, FIG. 10B): attenuated the loss of lean mass; also recorded: greater efficacy at both 3 mg/kg and 10 mg/kg compared to either Ab2 or Ab133; preservation of quadriceps weight ([1]; dexamethasone treated mice, FIG. 9D): highly effective in preserving quadriceps weight; body weight ([2]; 45% high fat diet, semaglutide 0.04 mg/kg with hIgG or Ab109, incl. regain after withdrawal, FIG. 14A): regained weight at the same rate whether they were treated with hIgG or Ab109; lean mass and fat mass by qNMR ([2]; Ab109 and semaglutide, FIG. 14H): reversed lean mass loss and enhanced fat mass loss induced by semaglutide treatment; further reduction of fasting blood glucose ([2]; Ab109 in conjunction with semaglutide, FIG. 14I): approximately 20%; liver weight ([2]; Ab109 in conjunction with semaglutide, FIG. 14J): reduced liver weight; gastrocnemius muscle weight ([2]; after 14 days of semaglutide treatment, FIG. 14E): preserved the gastrocnemius muscle weight; lean mass ([2]; semaglutide and Ab109, FIG. 14B-C): continued to increase their lean mass throughout the duration of the study; also recorded: better at maintaining lean mass during weight loss; fat mass ([2]; semaglutide, and regain after withdrawal with Ab109 or control IgG, FIG. 14D): regained less fat mass and regained it at a slower rate than those treated with control IgG; serum exposure of antibody (PK) [4]: dose proportional between 0.1 and 1 mg/kg and slightly exceeded dose proportionality at the highest dose of 3 mg/kg |
| B2 | more efficacy at 3 mg/kg than both doses of Ab2 | more efficacy at 3 mg/kg than both doses of Ab2 | efficacious in preserving body weight | greater efficacy in preserving lean mass than Ab2 | 1.2 | 4.7 | 93.1 | 488.4 | – |
